Laboratory results taken from PMC10266776.
No constants are given. Whether binding was seen depends on the method and setting. For some of these results: In cells and extracts the contact can be indirect. Some results given as binding are weak or reduced against the parent protein; the word gives no strength. For some of these results: Tags and fused reporters may be left off the sequences shown. Values belong to the substance of their own block, whether it stands above or below them.

Tests used:
[1] = biological target: T1, GST-RasGAP SH2 domain (175 to 274) (UniProt P20936); test: pull-down; GST pull-down with different GST fusion proteins of RasGAP or GST alone; HPK1 detected
T1 sequence: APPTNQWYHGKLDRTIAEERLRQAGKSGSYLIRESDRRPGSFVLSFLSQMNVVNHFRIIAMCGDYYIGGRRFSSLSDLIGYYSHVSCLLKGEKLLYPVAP

[2] = biological target: T2, GST-RasGAP SH2-SH3-SH2 domain (171 to 448) (UniProt P20936); test: as above
T2 sequence: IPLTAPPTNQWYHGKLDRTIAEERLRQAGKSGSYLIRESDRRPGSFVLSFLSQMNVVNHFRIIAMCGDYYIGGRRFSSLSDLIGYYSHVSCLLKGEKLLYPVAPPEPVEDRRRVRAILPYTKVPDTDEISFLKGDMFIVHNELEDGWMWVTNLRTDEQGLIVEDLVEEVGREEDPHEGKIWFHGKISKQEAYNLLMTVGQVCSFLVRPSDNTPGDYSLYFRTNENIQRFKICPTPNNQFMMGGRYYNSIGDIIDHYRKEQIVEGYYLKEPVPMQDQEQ

[3] = biological target: T3, Endogenous RasGAP in mouse pancreata (mouse (endogenous in pancreas)) (UniProt E9PYG6); test: co-IP; pancreata of HC and MC mice; 500 ug of total proteins with 2 ug of antibody or normal IgG; immunoblot
T3 sequence: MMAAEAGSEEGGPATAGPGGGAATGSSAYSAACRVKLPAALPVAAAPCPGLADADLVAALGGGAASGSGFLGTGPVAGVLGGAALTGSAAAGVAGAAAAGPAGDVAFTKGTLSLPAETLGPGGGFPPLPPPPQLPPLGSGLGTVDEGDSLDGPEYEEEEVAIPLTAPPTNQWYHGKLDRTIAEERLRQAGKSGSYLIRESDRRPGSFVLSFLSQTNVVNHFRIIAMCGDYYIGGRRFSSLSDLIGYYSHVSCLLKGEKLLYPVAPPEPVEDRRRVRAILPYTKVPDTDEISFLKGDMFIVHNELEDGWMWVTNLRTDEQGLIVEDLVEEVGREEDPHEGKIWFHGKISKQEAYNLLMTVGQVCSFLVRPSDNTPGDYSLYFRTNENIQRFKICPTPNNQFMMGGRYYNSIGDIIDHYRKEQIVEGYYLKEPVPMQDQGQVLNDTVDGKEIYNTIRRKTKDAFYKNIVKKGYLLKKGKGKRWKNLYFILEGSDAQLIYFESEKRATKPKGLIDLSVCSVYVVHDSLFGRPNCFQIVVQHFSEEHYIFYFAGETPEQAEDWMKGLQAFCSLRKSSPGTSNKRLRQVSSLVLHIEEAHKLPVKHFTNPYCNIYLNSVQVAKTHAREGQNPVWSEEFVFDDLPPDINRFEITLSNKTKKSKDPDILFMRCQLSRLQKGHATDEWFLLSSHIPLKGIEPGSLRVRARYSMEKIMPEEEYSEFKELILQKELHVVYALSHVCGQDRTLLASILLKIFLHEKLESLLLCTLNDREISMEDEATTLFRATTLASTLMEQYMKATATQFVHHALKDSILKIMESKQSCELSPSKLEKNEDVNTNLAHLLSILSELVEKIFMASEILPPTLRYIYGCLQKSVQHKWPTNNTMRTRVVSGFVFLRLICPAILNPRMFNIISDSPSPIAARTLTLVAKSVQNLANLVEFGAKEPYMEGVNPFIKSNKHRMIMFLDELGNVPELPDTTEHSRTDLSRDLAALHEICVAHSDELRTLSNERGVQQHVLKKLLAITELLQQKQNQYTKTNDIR

[4] = biological target: T4, Ras GTPase-activating protein (RasGAP) in Panc-1/HPK1 stable cells (human (endogenous in Panc-1)) (UniProt P20936); test: co-IP; Panc-1/HPK1 stable cells (C1) treated with 2.0 uM MG132; 500 ug of total proteins with 2 ug of antibody or normal IgG; immunoblot
T4 sequence: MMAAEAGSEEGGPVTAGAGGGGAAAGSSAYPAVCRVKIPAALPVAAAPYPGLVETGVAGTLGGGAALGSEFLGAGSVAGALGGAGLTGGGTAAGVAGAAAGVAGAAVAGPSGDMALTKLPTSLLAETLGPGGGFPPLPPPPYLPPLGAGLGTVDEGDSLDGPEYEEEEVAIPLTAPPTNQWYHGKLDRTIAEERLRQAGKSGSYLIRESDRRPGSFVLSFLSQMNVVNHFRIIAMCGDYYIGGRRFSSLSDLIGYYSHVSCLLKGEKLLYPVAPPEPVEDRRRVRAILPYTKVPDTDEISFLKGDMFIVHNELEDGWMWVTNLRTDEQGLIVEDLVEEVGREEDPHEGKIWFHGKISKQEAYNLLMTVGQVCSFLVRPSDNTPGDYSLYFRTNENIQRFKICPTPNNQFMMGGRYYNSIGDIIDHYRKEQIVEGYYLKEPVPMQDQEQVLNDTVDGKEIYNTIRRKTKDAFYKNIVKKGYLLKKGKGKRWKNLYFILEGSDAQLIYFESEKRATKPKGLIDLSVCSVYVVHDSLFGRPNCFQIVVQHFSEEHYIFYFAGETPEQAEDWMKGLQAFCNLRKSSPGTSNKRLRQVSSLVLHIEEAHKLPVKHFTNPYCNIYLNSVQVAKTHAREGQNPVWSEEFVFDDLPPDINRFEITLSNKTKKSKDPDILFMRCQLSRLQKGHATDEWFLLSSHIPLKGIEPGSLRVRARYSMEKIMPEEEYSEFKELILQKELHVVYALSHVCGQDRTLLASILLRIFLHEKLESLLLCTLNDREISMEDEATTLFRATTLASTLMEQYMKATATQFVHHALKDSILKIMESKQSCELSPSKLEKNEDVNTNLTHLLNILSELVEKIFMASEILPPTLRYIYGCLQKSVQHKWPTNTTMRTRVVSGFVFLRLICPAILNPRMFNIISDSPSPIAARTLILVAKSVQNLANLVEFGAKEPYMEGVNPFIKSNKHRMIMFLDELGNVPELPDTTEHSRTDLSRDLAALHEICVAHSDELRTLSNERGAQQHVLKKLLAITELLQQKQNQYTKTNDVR

[5] = biological target: Grb2 in Panc-1/HPK1 stable cells (human (endogenous in Panc-1)) (UniProt P62993); test: peptide or protein array; membrane filter arrayed with 400 antibodies (Hypromatrix) incubated overnight at 4°C with lysate of Panc-1/HPK1 stable cells treated with 2.0 uM MG132 for 16 hours; detected by HRP-conjugated anti-FLAG antibody
[6] = biological target: T4, Ras GTPase-activating protein (RasGAP) in Panc-1/HPK1 stable cells (human (endogenous in Panc-1)); test: as above

binding [1]: no binding
binding [2]: binds
Substance: HPK1 protein of the GST pull-down assay (from UniProt Q92918 1-833)

binding [3]: binds
Substance: HPK1 transgene expressed in the pancreata of HPK1 Bac-cre (HC) mice (from UniProt Q92918 1-833)

binding [4]: binds
binding [5]: binds
binding [6]: binds
Substance: Hematopoietic progenitor kinase 1 (HPK1), FLAG-tagged, in Panc-1/HPK1 stable cells (from UniProt Q92918 1-833)

binding [3]: binds
Substance: M46, kinase-dead mutant of HPK1, transgene expressed in the pancreata of M46 Bac-cre (MC) mice (from UniProt Q92918 1-833)
